Data: PubChem BioAssay AID686971 (National Center for Advancing Translational Sciences (NCATS), 2013)
Out of some 360,000 compounds screened, about 7,500 (2.1%) were called active. The shares of active, inactive and inconclusive entries below differ from those in the screen. The call rests on the fitted dose curve; in most records, active means well fitted cell-killing curve with a large enough effect; inconclusive means small, poorly fitted or top-dose-only effect, or effect the other way, or another doubt; inactive means no such curve, though single readings can be large or run the other way. Potencies of inconclusive entries are left out as doubtful fits.

test: qHTS for induction of synthetic lethality in tumor cells producing 2HG: qHTS for the HT-1080-IDH1KD cell line; settings: HT-1080 IDH1 knockdown viability, ATP luminescence, 48 h; activity, negative = toxicity: at 46.1 µM (top of the series) unless noted
Source text: Unbiased genomic sequencing for 22 glioma genomes found recurrent mutation of IDH1 on chromosome 2q33, a gene encoding the cytosolic isoform of IIDH1 associated with the tri-carboxylic acid cycle (TCA) that catalyzes the oxidative decarboxylation of isocitrate, yielding alpha-ketoglutarate and CO2 via NADP+ to NADPH conversion. Subsequent studies confirmed the recurrent IDH mutations in up to 70% of secondary gliomas and in 10% of AML cases. In addition, the somatic mutation of cancer-associated IDH1 is a point mutation resulting in various amino-acid substituents at Arginine132 (IDH1 R132), a key residue found in the enzyme's active site that when mutated, results in the loss-of-function in metabolizing isocitrate but confers a gain-of-function to produce the oncometabolite 2-hydroxyglutarate (2HG). This in effect defines IDH1 as an oncogene and provides an extraordinary opportunity to discover chemical probes against mutant IDH1 that may translate into much needed new therapies for glioma and AML patients.
This assay aims to perform a synthetic-lethal screen for chemical probes specific for 2HG-producing tumor cells using matched paired cell lines (1) HT-1080-NT fibrosarcoma cell line that overproduces 2HG and (2) HT-1080-IDH1KD cell line which has IDH1 expression knocked-down. Desirable compounds are toxic to the NT fibrosarcoma cell line but not to the IDH1KD cell line. The data in this AID corresponds to the results of the qHTS against the HT-1080 IDH1KD cell line.
[1] Dang L, Jin S, Su SM. IDH mutations in glioma and acute myeloid leukemia. Trends of Mol Med. 2010; 16(9): 387-97.
[2] Dang L et al. Cancer-associated IDH1 mutations produce 2-hydroxyglutarate. Nature. 2010; 465(7300):966.
Molecular Libraries Probe Production Centers Network [MLPCN]
NIH Chemical Genomics Center [NCGC]
Assay Submitter (PI): Lenny Dang Ph.D., Agios Pharmaceuticals
Suspensions of trypsinized HT-1080-IDH1KD cells were dispensed into white, tissue culture-treated, solid 1536-well plates at 5uL/well (750 cells/well final concentration) in RPMI medium supplemented with 5% FBS. Plates were incubated at 37 degrees C for 2 hours, after which 23 nL of compounds or DMSO were delivered to each well using a pin tool. Plates were then incubated at 37 degrees C for an additional 48 hours. CellTiter-Glo viability reagent (Promega) was dispensed into wells (2.5uL/well) and incubated at room temperature for 10 minutes. The plates were measured on a PerkinElmer ViewLux plate reader for luminescent signal (clear filter, 1 sec exp.). DMSO-treated control wells and media-only (no cells) control wells were used to normalize %Activity of identified toxic compounds; DMSO-treated wells corresponded to 0%Activity (100% viability), while media-only controls were used to normalize 100%Activity (0% viability). To minimize variability between cell lines, both HT-1080-NT and HT-1080-IDH1KD lines were dispensed and treated with identical compound series in single batches.
Concentration-response curves were fitted to the signals arising from the resulting luminescence. The concentration-effect curves were then classified based on curve quality (r2), response magnitude and degree of measured activity, and compounds were subsequently categorized based on their curve class.
Potency means the concentration at half of the fitted maximal effect; tags describe the fitted curve by direction and shape.

SMILES | Potency | activity, negative = toxicity
COc1ccc(OC)c(S(=O)(=O)Nc2ccc(O)c3ccccc23)c1 | inconclusive [cytotoxic, single point] | –
CCCc1nc(SCC(=O)N2c3ccccc3CC2C)c2c(C)c(C)sc2n1 (stereo unspecified) | inconclusive [cytotoxic, single point] | –
COc1ccccc1NC(=O)c1cc2ccc(O)cc2o/c1=N\O | inconclusive [cytotoxic, single point] | –
COc1ccc(CCN2C(=O)c3[nH]nc(-c4ccccc4O)c3C2c2cccc(O)c2)cc1OC (stereo unspecified) | inconclusive [cytotoxic, single point] | –
CCOc1ccccc1NC(=O)COC(=O)CC(C)(C)CC1=NS(=O)(=O)c2ccccc2N1 | inconclusive [cytotoxic, single point] | –
Nc1nc(CSC(=S)N2CCN(c3ccccc3)CC2)nc(Nc2ccc(F)cc2)n1 | inconclusive [cytotoxic, partial curve] | –
CC1CN(C(=O)CCC(=O)N2CCN(c3cccc(C(F)(F)F)c3)CC2)c2ccccc2O1 (stereo unspecified) | inactive | –
CCOC(=O)C1(C)CCN1C(=O)c1ccc2ccccc2c1 (stereo unspecified) | inconclusive [rising, single point] | –
OCC[C@@H]1C[C@@H](O)[C@H](O)[C@]2(Cc3ccccc3CCO2)O1 | inactive | –
CC1CCN(S(=O)(=O)c2ccc(NC(=O)CN3CCCC(C)C3)cc2)CC1 (stereo unspecified) | inconclusive [cytotoxic, single point] | –
CCOC(=O)N1CCN(C(=O)c2[nH]c(C(F)(F)F)nc2-c2ccccc2)CC1 | inconclusive [cytotoxic, single point] | –
CC1(C)CC[C@]2(C(=O)O)CC[C@]3(C)C(=CC[C@@H]4[C@@]5(C)CC[C@H](O[C@@H]6O[C@H](C(=O)O)[C@@H](O)[C@H](O[C@@H]7OC[C@H](O)[C@H](O)[C@H]7O)[C@H]6O)C(C)(C)[C@@H]5CC[C@]43C)[C@@H]2C1 | inconclusive [cytotoxic, single point] | –
CCc1cc2c(=O)nc3n(c2s1)Cc1ccccc1/C3=C(/O)c1cccc([N+](=O)[O-])c1 | inconclusive [cytotoxic, single point] | –
Cc1csc(NC(=O)Nc2ccc(Cl)cc2)n1 | inconclusive [cytotoxic, single point] | –
CCc1ccccc1Nc1nn2c(=O)c3ccc(C(=O)NCc4ccccn4)cc3nc2s1 | active: 0.0291 µM | –
COc1cc2c(cc1OC)C(c1cc3ccccc3oc1=O)=NC(C)(C)C2 | inconclusive [cytotoxic, single point] | –
O=[N+]([O-])C(/C=C(\Cl)[N+](=O)[O-])=C1N(Cc2ccc(Cl)nc2)CCN1Cc1ccc(Cl)nc1 | inconclusive [cytotoxic, single point] | –
O=C(N/N=C/c1ccc2c(c1)OCO2)c1ccc(COc2cccc3cccnc23)cc1 | inconclusive [cytotoxic, partial curve] | –
Clc1cccc(CNc2nc(-c3cccnc3)nc3ccccc23)c1 | inconclusive [cytotoxic, single point] | –
COc1cc(SC#N)ccc1N=Cc1c(C)[nH]n(-c2ccc(C)c(C)c2)c1=O | active: 14.6 µM | –
O=C(Nc1ccon1)c1sc2cc(Cl)ccc2c1Cl | inconclusive [cytotoxic, single point] | –
COc1cc(-c2nnc(NC(=O)CCS(=O)(=O)c3ccc(F)cc3)o2)cc(OC)c1OC | inconclusive [cytotoxic, single point] | –

SMILES | Potency | activity, negative = toxicity
CCOC(=O)C(C(=O)OCC)C1OC(=O)c2cc3c(cc21)C(=O)OC3C(C(=O)OCC)C(=O)OCC (stereo unspecified) | inconclusive [cytotoxic, single point] | –
CC(C)(C)c1nc(SCC(=O)Nc2nc3c(s2)CCCC3)c2ccccc2n1 | active: 1.41 µM | –
Cc1cc(C)cc(Oc2nc(C(F)(F)F)nc3ccccc23)c1 | inconclusive [cytotoxic, partial curve] | –
NC(c1ccccc1)c1csc(Nc2ccc(C(=O)c3ccccc3)cc2)n1 (stereo unspecified) | inconclusive [cytotoxic, partial curve] | –
CCCCCCCCN1C(=O)[C@H](CC(=O)NCc2cccc3ccccc23)C[C@@]2(C(=O)OCC)CCCC=C12 | inconclusive [cytotoxic, single point] | –
CN(C)CCSc1nnc2[nH]c3ccccc3c2n1 | inactive | –
COc1cccc(C(=O)Nc2cccc(-c3nnc(-c4ccco4)o3)c2)c1 | inconclusive [cytotoxic, single point] | –
CCn1c(SCC(=O)Nc2oc(C)c3c(C)n[nH]c(=O)c23)nc2sc(C)c(C)c2c1=O | inactive | –
COc1cc(/C=C/c2ccc3cccc(O)c3n2)cc(OC)c1OC | active: 6.51 µM | –
Cc1cccc(N2CCN(C(=O)c3ccc(Cl)c(S(=O)(=O)NCc4ccco4)c3)CC2)c1C | active: 16.4 µM | –
CC(=O)Cn1ncc(Br)c(Br)c1=O | active: 7.31 µM | –
COc1ccc(-c2cc(NC(C)=O)c3ncc(-c4cc(OC)c(OC)c(OC)c4)n3c2)cn1 | inconclusive [cytotoxic, full curve] | –
C/C(CCC(=O)O)=N/Nc1ccc([N+](=O)[O-])cc1[N+](=O)[O-] | inconclusive [cytotoxic, single point] | –
CCCNCC1C(Oc2ccc(Cl)cc2Cl)C(=O)N1c1cccc(C)c1C (stereo unspecified) | inconclusive [cytotoxic, single point] | –
CCN1CCN(c2ccc(NC(=O)c3ccc4c(c3)[nH]c(=O)n4Cc3ccc(F)cc3)cc2)CC1 | inactive | –
COc1ccc(NC(=O)COc2ccc(/C=C/c3cc[n+](C)cc3)cc2OC)cc1 | inactive | –
COc1cc(OC)c(OC)cc1/C=C/c1ccnc2ccccc12 | inconclusive [cytotoxic, single point] | –
Cc1ccc2c(C)nc(Nc3nc(CSc4nnnn4-c4ccccc4)cc(=O)[nH]3)nc2c1 | inconclusive [cytotoxic, single point] | –
S=C(Nc1ccccn1)c1ccccn1 | inconclusive [cytotoxic, single point] | –
CCOc1ccc(C(=O)/C=C/Nc2ccc(S(=O)(=O)N=C(N)N)cc2)cc1 | active: 18.4 µM | –
COc1cc(-c2nnc(COC(=O)CSc3cc(C)c4ccccc4n3)o2)cc(OC)c1OC | inactive | –
Oc1ccc(N2CCN(c3ncnc4sc5c(c34)CCC5)CC2)cc1 | inconclusive [cytotoxic, single point] | –

SMILES | Potency | activity, negative = toxicity
O=C(COc1ccccc1Cl)NC(=S)N1CCc2ccccc21 | inconclusive [cytotoxic, single point] | –
CCCCNc1c(-c2cccc(-c3ccc(OC)cc3)c2)nc2ccc(C)cn12 | inconclusive [cytotoxic, single point] | –
CC(C)Cc1cc(C(C)(C)C)ccc1OC(=S)N(C)C | inactive | –
S=C(NNC(=S)Nc1ccc(Cl)cc1)NNc1ccccc1 | inactive | –
COc1cccc2c(=O)c(SC(F)(F)C(F)C(F)(F)F)c(C)[nH]c12 (stereo unspecified) | active: 20.6 µM | –
O=C(N/N=C/c1cccnc1)c1cc(-c2cccs2)nc2ccccc12 | inconclusive [cytotoxic, partial curve] | –
O=C(CCCN1C(=O)/C(=C\c2ccco2)SC1=S)Nc1cccc2ccccc12 | inconclusive [cytotoxic, partial curve] | –
CC(=O)c1c(C)[nH]c(C(=O)COc2cc(C)ccc2C(C)C)c1C | inconclusive [cytotoxic, partial curve, poor fit] | –
CCOC(=O)C1(Cc2cccc(OC)c2)CCN(C/C=C/c2ccc(OC)cc2)CC1 | inconclusive [cytotoxic, single point] | –
CCCCCC(NC(=O)C1CCN(C(=O)[C@@H](NS(=O)(=O)c2ccc(C)cc2)C(C)C)CC1)C(=O)O (stereo partly specified) | inconclusive [cytotoxic, single point] | –
Cc1ccc(C)c(NC(=O)Cc2nc(CCl)cs2)c1 | inactive | –
O=S1(=O)N=C(Nc2nncs2)c2ccccc21 | inconclusive [cytotoxic, single point] | –
C=CCn1cc(C(=O)OC)c(=O)c2cc(S(=O)(=O)N(CC)CC)ccc21 | inactive | –
C=CCSc1ncc(-c2ccccc2)cn1 | inconclusive [rising, single point] | –
CC1CC(C)CN(S(=O)(=O)c2ccc(NC(=O)CN3C(=O)NC(C)(c4ccccc4)C3=O)cc2)C1 (stereo unspecified) | inactive | –
Cc1cc(C)c(CSc2ncc(-c3ccc([N+](=O)[O-])cc3)[nH]2)c(C)c1 | active: 25.9 µM | –
O=C(Nc1cccc(S(=O)(=O)N2CCCCC2)c1)C1CCC1 | – | inconclusive: -30.5% [cytotoxic]
CCCCC(=O)N(C)c1c(CC)nc2c(OCCC)cccn12 | inactive | –
CCN(C(=O)Cn1cc(C(=O)C(=O)N2CCOCC2)c2ccccc21)c1ccccc1 | inactive | –
C#CCOCCOCCOCCNc1nc(N2CCN(C(=O)[C@H](Cc3cc4ccccc4[nH]3)n3cc(C(N)CC(C)C)nn3)CC2)nc(N2CCN(C(=O)[C@H](CCC(=O)O)n3cc(C(N)[C@H](C)CC)nn3)CC2)n1 (stereo partly specified) | inactive | –
CSc1cccc(NC(=O)C2CCCN2S(=O)(=O)c2ccc(Br)s2)c1 (stereo unspecified) | inconclusive [cytotoxic, single point] | –
CCC1Oc2ccc(C)cc2N(CC(=O)N(Cc2ccc(C)o2)C2CC(C)(C)NC(C)(C)C2)C1=O (stereo unspecified) | inconclusive [cytotoxic, single point] | –
